The whole screen tested about 48,000 compounds, of which about 450 (0.94%) were called active. Not shown: some 19% with an inconclusive outcome. Calls come from the whole dose curve; as a rule, active = well fitted inhibition curve with a large enough effect; inconclusive = small, poorly fitted or top-dose-only effect; inactive = no such curve, though single readings can be large or run the other way. The list shows a part of the results.
test: Primary qHTS for Identification of Small Molecule Inhibitors of Huntingtin Promoter Activity; conditions: HEK293 HTT promoter firefly luciferase reporter (activity 0% = vehicle and -100% = no light), 24 h; series mostly up to 57.5 µM; activity change, negative = inhibition: at the top concentration; note: nearly all actives have a fitted effect of over 50% in size
Summary of the method: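 Luminescence was read after Dual-Glo reagent and a 10 min room-temperature incubation. Values were normalized to vehicle (0% activity) and zero RLU (-100% activity). Reporter HEK293 cells had been exposed to compounds (up to 57.5 uM final) for 24 h.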

Activity change, negative = inhibition, inactive:
CN(CC(=O)Nc1cccc(Cl)c1)S(=O)(=O)c1ccc2[nH]c3c(c2c1)CCCC3 -4.27%, COc1ccc2c(c1)cc(CNc1ccc(OC)c(OC)c1)c(=O)n2CC(=O)Nc1ccc(F)cc1 -28.4%, Cc1c(C(=O)Nc2ccc(F)c(F)c2)oc2ccc(S(=O)(=O)N3CCCCC3)cc12 -31.5%, Cc1cn([C@H]2C=C[C@@H](CO)O2)c(=O)[nH]c1=O, O=S(=O)(NCC(c1ccco1)S(=O)(=O)c1ccccc1)c1ccccc1 (stereo unspecified) -15.3%, COc1ccc(N2CCN(C(=O)CCc3c(C)nc4c(-c5ccccc5)c(C)nn4c3C)CC2)cc1 -29.7%, COc1ccccc1CNC(=O)CCCCn1c(=O)c2ccccc2n(Cc2c(C)cc(C)cc2C)c1=O 2.81%, CC1=C(C(N)=O)C(c2ccc(C(C)C)cc2)n2nc(SCc3ccccc3)nc2N1 (stereo unspecified) -6.6%, Cc1cc(C)n2nc(SCC(=O)Nc3cc(Cl)ccc3C)nc2n1 -8.74%, COC(=O)c1ccc(NC(=O)CCc2c(C)nc3c(c(C)nn3-c3ccc(C)cc3)c2C)cc1 -12.7%, COc1ccc(CCNc2nc(-c3ccc(C)cc3)cc(C(F)F)n2)cc1OC -1.02%, Cc1cccc(NC(=O)c2oc3c(c2C)-c2[nH]ncc2CC3)c1C 36.6%, Oc1c(C(c2ccccc2F)N2CCOCC2)sc2nc(-c3ccco3)nn12 (stereo unspecified) 19.9%, Cc1nc2c(C(=O)NCc3ccccc3Cl)c[nH]n2c(=O)c1Cc1cccc(Cl)c1 -20.9%, CC(NC(=O)CSc1n[nH]c(-c2ccccc2Cl)n1)c1nc2ccccc2n1C (stereo unspecified) -8.02%, CCOc1ccc(NC(=O)CN2CCN(Cc3ccccc3)S2(=O)=O)cc1 -13.8%, Cc1cc(=O)[nH]c2nnc(SCc3ccc(Cl)c(Cl)c3)n12 -13.1%, CCCCN(C)CCCNC(=O)CN1C(=O)COc2ccc(S(=O)(=O)N3CCC(C)CC3)cc21 -13.1%, CCOC(=O)N1CCc2c(sc(NCc3sccc3C)c2C(=O)Nc2cc(OC)ccc2OC)C1 -18.7%, CCOc1ccccc1-n1c(C)nc2cc(C(=O)O)ccc21 -0.99%, N#C/C(=C\c1ccc(F)cc1)C(=O)NCC1CCCO1 (stereo unspecified) 1.77%, Cn1cnc(S(=O)(=O)N2CCCC(C(=O)NCc3ccccc3Cl)C2)c1 (stereo unspecified) -19.9%, Cc1ccc(CCNC(=O)C(CC(C)C)NS(=O)(=O)c2ccc3c(c2)oc(=O)n3C)cc1 (stereo unspecified) -6.72%, CSc1ncc(Cl)c(C(=O)Nc2c(C(=O)c3ccc(C)c(F)c3)oc3ccccc23)n1 -7.26%, COc1cccc(NC(=O)CCc2nc(-c3cccs3)no2)c1 -22.7%, Cc1cc2[nH]c(=O)c(=O)[nH]c2cc1S(=O)(=O)Nc1ccc(OC(F)(F)F)cc1 -3.3%, COc1cccc(CNC(=O)C(Cc2ccccc2)NS(=O)(=O)c2ccc3c(c2)oc(=O)n3C)c1 (stereo unspecified) -15.7%, Cc1cccc(OC(=O)c2cc(-c3ccc4c(c3)OCCO4)on2)c1C 9.29%, Cc1cccc(N2CCN(c3ccc(NC(=O)c4ccccc4)cc3C(=O)O)CC2C)c1 (stereo unspecified) -9.65%, Cc1cccc(NC(=O)c2ccc3nc(CCc4ccccc4)oc3c2)c1C 28.6%, Cc1ncc(CO)c2c1Oc1nc(-c3ccc(F)cc3)nc(SCc3ccc(F)cc3Cl)c1C2 -19.4%, O=C(NCc1ccc(F)cc1)c1ccc2c(c1)nc1n2CCCCC1 29.1%, COc1ccc(-c2noc(-c3nnn(-c4ccc(C(C)C)cc4)c3C)n2)cc1OC 3.14%, CCCS(=O)(=O)N1CCC(N2CCN(Cc3ccc(F)cc3)C(=O)C2=O)CC1 19.1%, O=C(Nc1ccccc1)c1ccc2c(O)c(S(=O)(=O)c3ccc(Cl)cc3)c(=O)[nH]c2c1 -13%, CCOC(=O)c1ccc(NC(=O)CN2Cc3ccccc3C2=O)cc1 -7.69%, COc1ccccc1C(=O)Nc1onc2c1CCCC2 -25%, CCn1cc(C(=O)N2CCN(c3ccc(OC)cc3)CC2)c2cc(OC)c(OC)cc2c1=O 1.15%, O=S(=O)(c1ccc2nc(Nc3cccc(F)c3)ccc2c1)N1CCCC1 -4.07%, Cc1ccccc1Cn1c2ccccc2c2cnn(CC(=O)N3CCC(C)CC3)c(=O)c21 -20%, CCc1ccc(NC(=O)N2CCC(N3CCN(Cc4ccc(C)cc4)C(=O)C3=O)CC2)cc1 1.14%, COc1ccc(-c2cc3nccc(-c4cc(Cl)c(C)cc4O)n3n2)cc1 -24.1%, CCOc1ccccc1NC(=O)CSC1=Nc2ccccc2C2=NC(CC(=O)NCc3ccc4c(c3)OCO4)C(=O)N12 (stereo unspecified) -20.9%, Cc1nn(CC(=O)NCCc2ccccc2)c(=O)c2c1sc1ccccc12 -8.62%, O=c1cc(-c2ccccc2)n2c(SCc3ccc(Br)cc3)nnc2[nH]1 -9.37%, Cc1cc2nc(N(Cc3cccnc3)C(=O)c3ccc(Cl)s3)sc2cc1C -15.5%, Cc1ccc(S(=O)(=O)NCC(c2ccc(N(C)C)cc2)N2CCc3ccccc32)cc1 (stereo unspecified) -16.6%, CC(=O)N1c2ccc(S(=O)(=O)N(C)CC(=O)N(Cc3ccccc3)C(C)C)cc2CC1C (stereo unspecified) -25.3%, CC(C)(C)c1ccc(C(=O)N2CCN(CCc3ccccn3)CC2)cc1 -19.9% [at 11.5 µM], CCN(Cc1ccccc1)Cc1c(O)ccc2oc(C)c(C(=O)Nc3ccccc3C)c12 -34.7%, O=C(Cc1ccccc1)Nc1nnc2n1CCS2 2.03%, CCC(C)NC(=O)Cn1c(=O)n(-c2ccc(C)c(C)c2)c(=O)c2c(C)c(C(=O)N(CC)CC)sc21 (stereo unspecified) 0%, C=CC(=O)Nc1cc2c(Nc3ccc(F)c(Cl)c3)ncnc2cc1C#CC(C)(C)N1CCN(C)CC1 -3.12%, CCOc1ccccc1C(=O)N1CC(=O)Nc2ccc(C)cc2C1c1ccccc1 (stereo unspecified) -21%, CCOc1ccccc1NC(=O)N1CCc2c(sc3c2CCCC3)C1c1ccccc1 (stereo unspecified) -29.6%, Cc1nn2c(=O)cc(COc3ccc(/C=C(\C#N)C(=O)Nc4ccccc4)cc3Cl)nc2s1 -18%, CNC1CCC(N(Cc2cccc(-c3ccncc3)c2)C(=O)c2sc3c(F)ccc(F)c3c2Cl)CC1 (stereo unspecified) -14.5%, O=C(OCc1ccccc1Cl)c1ccc(-c2nnn(Cc3ccc(F)cc3)n2)cc1 -15.6%, Brc1ccc2c(c1)NC(c1cccnc1)=NC(c1ccccc1)=N2 48.5%, CCOc1cc(C(=O)NCc2nc(-c3cccc(C)c3)no2)cc(OCC)c1OCC -1.92%, COC(=O)c1ccccc1NC(=O)c1cc(CN2CCOCC2)on1 2.68%

Source: PubChem BioAssay AID1508623 (National Center for Advancing Translational Sciences (NCATS), 2021)
